The text below walks through data of PubChem BioAssay AID2025 (NMMLSC, 2009).

In all, about 330,000 compounds went through this assay and about 980 (0.3%) were called active.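 Rule for the calls: active = percent response vs DMSO below 50%; inconclusive = fewer than 70 events counted for the yeast strain; inactive = the rest.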 Where a structure was tested more than once in an assay, its records may differ in their call. A number of entries come with more than one value. The other results are left out here. The source may hold further records. Values given together are repeats (runs, samples, wells, individuals or studies). Marks in square brackets tell the records apart. Letters count within one entry.

The assay in a line: RPL19A-GFP expression modulators in yeast, primary screen, cell-based, S. cerevisiae, multiplex flow cytometry, MLPCN (AID 2025).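 Note: median channel GFP fluorescence of the barcoded RPL19A-GFP strain; ratio of sample median GFP to plate DMSO average so 100% = DMSO; lower means less RPL19A-GFP as with rapamycin TOR inhibition.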 The conditions noted are these: S. cerevisiae RPL19A-GFP strain, 3 h, at 10 µM, stronger effect = lower value.
In the case of `O=C(Cn1c[n+](CC(=O)c2ccc([N+](=O)[O-])cc2)cn1)c1ccc([N+](=O)[O-])cc1`, the percent response vs DMSO entry was “inactive: 93% [sample A] and active: 47.7% [may fluoresce violet] [sample B]”.
